In the supplement of paper PMC11417369:
This is one part of the list.

The sequences below were run on PfHDP1 homeodomain (GST-tagged) (assay: gcPBM binding intensity (ln(normalized median fluorescence intensity)); higher = stronger DNA binding).
Procedure, shortened: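 The highest Masliner-normalised natural-log median intensity across replicate spots of either probe orientation is reported as binding intensity. GST-tagged P. falciparum DNA-binding domains expressed in E. coli were applied for 1 h to an Agilent 4 × 180k array of primer-extended double-stranded 36-bp intergenic genomic probes plus negative controls, and bound protein was detected with Alexa488 anti-GST antibody and scanned at 488 nm.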

Row | Sequence | gcPBM binding intensity (ln)
1 | TTAATTAGAAATCATACACACATATATATATATATA [CACACA_site173] | 9.37
2 | AAACATGTATTTTATTGTACACATTCATAAATCACA [XGTACX_site1420] | 6.63
3 | TTATAATCTTATATATGTACATATATATATTATTAT [XGTACX_site7780] | 6.48
4 | TACATGTATGTAATATGTTTTATTTTTTTCATCTCT [XGTACX_negctrl_site79] | 5.98
5 | AAATATATGAATAAATGTACGAAATGAATGGATGAA [XGTACX_site7108] | 6.67
6 | TTAGCTATGATATATACACACCAACGAACGAAGAAA [CACACA_site6657] | 6.92
7 | GTCTATTCAAAAAAGTGTACGGACATATAAACATAC [XGTACX_site6516] | 6.88
8 | TATGGTGTAATTTAGTGTATTATATTATTTTGGTTG [GTGCAC_negctrl_site445] | 6.75
9 | TGCAGTCTGGAGAAAAGTACATAGTATCTGGTATCT [XGTACX_site2545] | 6.25
10 | CATTTGATAAGATACACACACAAGGAAAAAAATAAA [CACACA_site350] | 7.07
11 | TATAATAATATTAACACACGTACAAAAGCAAACAAC [CACACA_site3494] | 7.56
12 | TTATAATATCTATATATCTTTTACATTTATAAGTTT [CACACA_negctrl_site1473] | 6.25
13 | TTTTTTTTTTTTTTTGCACACAGGGTGTAGGACAAG [CACACA_site2842] | 9.54
14 | ATATATATATTCCACACACACACAAAAAAAAAAAAA [CACACA_site3648] | 7.51
15 | ATAAAATAAGATCTTTTTTTTTTTTTTTTCTTTTCT [XGTACX_negctrl_site73] | 6.03
16 | AACAAATAAATAAATAAAAAGCAAATATGTCTATAT [GTGCAC_negctrl_site414] | 6.57
17 | TATAACTTTTTTATTACACACCTATGCAATATTATA [CACACA_site6570] | 7.04
18 | TACAGATAATATATTGCACACGTCAGAATAATATAG [CACACA_site5036] | 9.93
19 | TGGTTAATATGTGAAAGTACATATTATATTAAAATG [XGTACX_site2636] | 6.35
20 | AAAAAGAAAAAACTTACACACATATATACAGACATG [CACACA_site550] | 6.71
21 | AATATACAATAAAGGTGTACACATATATGATGCAAG [XGTACX_site7607] | 7.64
22 | TTATAATCCATAATTGCACACAATATATTCATATTT [CACACA_site3916] | 10.1

Row | Sequence | gcPBM binding intensity (ln)
23 | AGATATAGGAAAATAATATATATATATTTTTTTTTT [CACACA_negctrl_site461] | 6.18
24 | ATATATATATATATATGTACTTATAAGGTATATTTA [XGTACX_site3327] | 9.36
25 | TATATTTATTTATACACATGCATATTTTAAGGGCTC [TGCATGCA_site885] | 6.76
26 | ATTTATTTATTTATTTGTACATATAAATATATCAAA [XGTACX_site7383] | 6.58
27 | AAAGATGTTATATATATGTATATATATATGTAATAT [TGCATGCA_negctrl_site386] | 6.56
28 | CATATAATTATATATCGTACATATTAATATAATTAC [XGTACX_site401] | 6.46
29 | AGTATACAGATATATACACACATATATTTATTTATA [CACACA_site6279] | 6.47
30 | TACATTCATGTGTATTGTACAAACTATTTTATAATA [XGTACX_site7744] | 6.63
31 | TACATATTTTTTATGTGTACATATTTTTTATGTGTA [XGTACX_site443] | 6.23
32 | ACAATCCTAACGACATGTACAAATATATATATTTTT [XGTACX_site7335] | 6.54
33 | GCATATTTTATAATTTTACACACCATATAAAATAAT [CACACA_site8904] | 6.83
34 | TATATAATATATATAGTGCATAAGTTCAAAAGAATA [GTGCAC_site9805] | 9.15
35 | CCAACATTTTTTAGAAGTACATTTTTATATTTATTA [XGTACX_site5179] | 6.15
36 | AAATAAAAACATAACAGTACAGTTAACATTTTTATA [XGTACX_site3479] | 6.19
37 | TATATATATATATATGTACACACATATATACCTTTC [CACACA_site8854] | 9.31
38 | TGTAATAATCTTACATGTACATACATATATTATATA [XGTACX_site4012] | 6.58
39 | GATGGAAGGTGAAAGCGTACTTATTATAGTAATATA [XGTACX_site303] | 6.45
40 | AGGTACTTTTTTAAAACACACATATAATATATACAC [CACACA_site1065] | 6.72
41 | AAACAAAGAAAGAACACACATACACAATATACCTAC [CACACA_site2835] | 6.92
42 | ATATATGTGTATGTATGTACTCATTTTTGTATATAT [XGTACX_site490] | 6.33
43 | TTATATATTTATATTTGTACGTATAAATTTTTTTTT [XGTACX_site2833] | 6.28
44 | CATTTAAATTATAAGTGTACACGATCATATTTCATC [XGTACX_site349] | 6.69
